What was measured:
human CCR8 [1] = target: T1, human CCR8 (human, UniProt P51685 1-355); assay: cell-based or functional assay
human CCR8 [2] = target: T1, human CCR8; assay: cell-based or functional assay; remark: listed apart in the source
human CCR8 [3] = target: human CCR8 (human, UniProt P51685 1-355); assay: cell-based or functional assay; remark: listed apart in the source
cynomolgus CCR8 = target: T2, cynomolgus CCR8 (cynomolgus, UniProt O97665 1-356 (rhesus entry)); assay: FACS, CHO cells transfected with cynomolgus CCR8
cynomolgus CCR8, sequence (O97665 other isoform, or with tags, fused parts or gaps): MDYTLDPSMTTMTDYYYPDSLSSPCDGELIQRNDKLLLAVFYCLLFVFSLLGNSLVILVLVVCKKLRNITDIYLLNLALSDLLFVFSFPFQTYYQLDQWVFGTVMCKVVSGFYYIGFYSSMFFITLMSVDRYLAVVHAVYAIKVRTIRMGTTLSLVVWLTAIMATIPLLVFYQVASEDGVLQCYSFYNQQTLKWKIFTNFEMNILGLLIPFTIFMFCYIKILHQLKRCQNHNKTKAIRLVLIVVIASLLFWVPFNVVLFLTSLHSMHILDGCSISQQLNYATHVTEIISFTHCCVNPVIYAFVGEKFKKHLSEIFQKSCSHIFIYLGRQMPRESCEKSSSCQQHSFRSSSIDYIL
T2 construct: also called cynoCCR8; G7NYJ2_CCR8_MACFA

Binder	ADCC EC50 (pM); HEK-hCCR8 + NK92v, n = 2 (human CCR8 [1]) [pM]	ADCC Max Response (%); HEK-hCCR8 + NK92v, n = 2 (human CCR8 [1]) [%]	ADCC EC50 (pM); HEK-hCCR8 + NK92v (human CCR8 [2]) [pM]	ADCC Max Response (%); HEK-hCCR8 + NK92v (human CCR8 [2]) [%]	ADCP EC50 (pM), Incucyte live-imaging; human CCR8-HEK target cells, M2c macrophages as effector cells (human CCR8 [3]) [pM]	ADCP Max Response (%), Incucyte live-imaging; human CCR8-HEK target cells, M2c macrophages as effector cells (human CCR8 [3]) [%]	EC50 (cynomolgus CCR8) [nM]
TPP-27479, afucosylated (antibody, human IgG1, lambda, afucosylated (no fucose on the N-glycan at N297)) heavy: EVQLLESGGGLVQPGGSLRLSCAASGFTFSSYGMHWVRQAPGKGLEWVSGINWNGGSTGYADSVKGRFTISRDNSKNTLYLQMNSLRAEDTAVYYCARGHHSGYDGRFFDYWGQGTLVTVSS[here human IgG1 constant region without letters] light: QSVLTQPPSVSGAPGQRVTISCTGSSSNIGAGYNVHWYQQLPGTAPKLLIYTNNRRPSGVPDRFSGSKSGTSASLAISGLRSEDEADYYCAAWDASLSGWVFGGGTKLTVLGQPKAAPSVTLFPPSSEELQANKATLVCLISDFYPGAVTVAWKADSSPVKAGVETTTPSKQSNNKYAASSYLSLTPEQWKSHRSYSCQVTHEGSTVEKTVAPTECS	823	25	363	32			
TPP-27478, afucosylated (antibody, human IgG1, lambda, afucosylated (no fucose on the N-glycan at N297)) heavy: EVQLLESGGGLVQPGGSLRLSCAASGFTFSSYGMHWVRQAPGKGLEWVSAINWNGGSTGYADSVKGRFTISRDNSKNTLYLQMNSLRAEDTAVYYCARGHHSGYDGRFFDYWGQGTLVTVSS[here human IgG1 constant region without letters] light: QSVLTQPPSASGAPGQRVTISCTGSSSNIGAGYNVHWYQQLPGTAPKLLIYTNNRRPSGVPDRFSGSKSGTSASLAISGLRSEDEADYYCAAWDASLSGWVFGGGTKLTVLGQPKAAPSVTLFPPSSEELQANKATLVCLISDFYPGAVTVAWKADSSPVKAGVETTTPSKQSNNKYAASSYLSLTPEQWKSHRSYSCQVTHEGSTVEKTVAPTECS	11	32	110	35			
TPP-27479 (antibody, human IgG1, lambda) heavy: EVQLLESGGGLVQPGGSLRLSCAASGFTFSSYGMHWVRQAPGKGLEWVSGINWNGGSTGYADSVKGRFTISRDNSKNTLYLQMNSLRAEDTAVYYCARGHHSGYDGRFFDYWGQGTLVTVSS[here human IgG1 constant region without letters] light: QSVLTQPPSVSGAPGQRVTISCTGSSSNIGAGYNVHWYQQLPGTAPKLLIYTNNRRPSGVPDRFSGSKSGTSASLAISGLRSEDEADYYCAAWDASLSGWVFGGGTKLTVLGQPKAAPSVTLFPPSSEELQANKATLVCLISDFYPGAVTVAWKADSSPVKAGVETTTPSKQSNNKYAASSYLSLTPEQWKSHRSYSCQVTHEGSTVEKTVAPTECS					79.5	9.8	
TPP-27496 (antibody, human IgG1, lambda, 70% afucosylated) heavy: EVQLLESGGGLVQPGGSLRLSCAASGFTFSSYGMHWVRQAPGKGLEWVSAINWNGGSTGYADSVKGRFTISRDNSKNTLYLQMNSLRAEDTAVYYCARGHHSGYDGRFFDYWGQGTLVTVSS[here human IgG1 constant region with changes without letters] light: QSVLTQPPSVSGAPGQRVTISCTGSSSNIGAGYNVHWYQQLPGTAPKLLIYTNNRRPSGVPDRFSGSKSGTSASLAISGLRSEDEADYYCAAWDASLSGWVFGGGTKLTVLGQPKAAPSVTLFPPSSEELQANKATLVCLISDFYPGAVTVAWKADSSPVKAGVETTTPSKQSNNKYAASSYLSLTPEQWKSHRSYSCQVTHEGSTVEKTVAPTECS							0.455

— US20240376218A1 (published 2024)
